{"source": "PubChem BioAssay AID1458", "about": "(National Center for Advancing Translational Sciences (NCATS), 2008)", "note": "The campaign covered roughly 210,000 compounds. About 5,900 (2.8%) were called active. The inconclusive results got no clear call from the source; some entries with a clear call stand among them for comparison. The call rests on the fitted dose curve; in most records, active means well fitted activation curve with a large enough effect; inconclusive means small, poorly fitted or top-dose-only effect; inactive means no such curve, though single readings can be large or run the other way. A potency beside an inconclusive call is a rough fit, not a confirmed value. Potency means the concentration at half of the fitted maximal effect; tags describe the fitted curve by direction and shape.", "data": [{"test": "qHTS Assay for Enhancers of SMN2 Splice Variant Expression; further: nearly all actives have a fitted effect of over 55% in size; on activity change, positive = activation: % of control where 0% means no effect", "settings": "HEK293 SMN2-luciferase splicing reporter, luminescence, 30-36 h; activity change, positive = activation: at 46.1 µM (top of the series)", "outline": "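HEK293 cells carry an SMN2 minigene-luciferase reporter in which exon 7 inclusion puts luciferase in frame. Cells were seeded at 2000 cells/well, attached for 10-12 hours, then exposed to compounds for 30-36 hours at 37C before ONE-Glo luminescence.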", "values": [{"smiles": "CN(C)CCCSc1nc2ccccc2s1", "Potency": "inconclusive: 12.6 µM [activator, partial curve, poor fit]"}, {"smiles": "CCOC(=O)Cc1csc(NC(=O)C(C)(C)C)n1", "Potency": "inconclusive: 0.282 µM [activator, full curve, poor fit]"}, {"smiles": "COc1cc2c(cc1OC)C(CCN)=NCC2", "activity change, positive = activation": "inactive: -4.65% [at 9.22 µM]"}, {"smiles": "CCN1CCN(CCn2c(=S)[nH]c3ccccc3c2=O)CC1", "Potency": "inconclusive: 6.31 µM [activator, partial curve]"}, {"smiles": "N#C/C(=C\\c1ccc(OCC(N)=O)cc1)S(=O)(=O)c1ccccc1", "activity change, positive = activation": "inactive: 10.4%"}, {"smiles": "Cc1ccc(-n2cc(-c3ccccc3)nc2S(=O)(=O)CC(=O)Nc2ccc(F)cc2)cc1", "activity change, positive = activation": "inactive: 10.5%"}, {"smiles": "S=C(c1ccc(-c2ccc(Cl)cc2Cl)o1)N1CCCCC1", "Potency": "active: 12.6 µM"}, {"smiles": "COc1cc(C(=O)Nc2ccc3[nH]c(=O)sc3c2)cc(OC)c1OC", "Potency": "inconclusive: 14.1 µM [activator, single point]"}, {"smiles": "Cn1c(C(=O)NCc2ccccc2F)cc2oc3ccccc3c21", "Potency": "inconclusive: 20 µM [activator, single point]"}, {"smiles": "N/C(=N\\OC(=O)COc1ccc(Cl)cc1Cl)c1cccnc1", "Potency": "inconclusive: 35.5 µM [activator, single point]"}, {"smiles": "COc1nnc(-c2ccc(N3CCCCC3)c(NC(C)=O)c2)c2ccccc12", "activity change, positive = activation": "inactive: -7.48%"}, {"smiles": "O=c1c2ccccc2nc(-c2ccccc2)n1/N=C/c1ccc([N+](=O)[O-])cc1", "Potency": "inconclusive: 35.5 µM [activator, single point]"}, {"smiles": "N#CC1=C(N)N(c2ccccc2C#N)C2=C(C(=O)CCC2)C1c1ccsc1", "note": "(stereo not given)", "Potency": "inconclusive: 0.316 µM [activator, full curve, poor fit]"}, {"smiles": "CCc1cccc(CC)c1NC(=O)COC(=O)CC1c2ccccc2CCN1S(=O)(=O)c1ccc(F)cc1", "note": "(stereo not given)", "Potency": "inconclusive: 0.0045 µM [activator, full curve, poor fit]"}, {"smiles": "N#Cc1ccc(CO/N=C/c2ccccc2)cc1", "Potency": "inconclusive: 10 µM [activator, single point]"}, {"smiles": "COc1ccc(Cn2c(=O)sc3ccccc32)cc1", "Potency": "inconclusive: 3.16 µM [activator, partial curve]"}, {"smiles": "COc1ccc(NC(=O)/C(C#N)=C/c2cc(C)n(-c3ccc(F)cc3)c2C)cc1", "activity change, positive = activation": "inactive: 3.35%"}, {"smiles": "C[C@H]1CS(=O)(=O)CCN1/N=C\\c1ccc([N+](=O)[O-])o1", "activity change, positive = activation": "inactive: -20.5% [at 20.6 µM]"}, {"smiles": "Cc1cc(N2CCCCC2)nc(N)n1", "Potency": "inconclusive: 3.98 µM [activator, partial curve]"}, {"smiles": "O=C(NCC1CCCO1)c1cc2c(s1)CCC2", "note": "(stereo not given)", "Potency": "inconclusive: 5.62 µM [activator, partial curve]"}, {"smiles": "O=C(O)c1ccc(COc2ccccc2/C=C2\\NC(=O)N(Cc3ccccc3)C2=O)cc1", "Potency": "inconclusive: 17.8 µM [activator, single point]"}, {"smiles": "Nc1nc2sc3c(c2c(=O)s1)CCCC3", "Potency": "inconclusive: 10 µM [activator, partial curve, poor fit]"}, {"smiles": "COc1ccccc1COC(=O)N/C=C/c1ccco1", "Potency": "inconclusive: 3.98 µM [activator, full curve, poor fit]"}, {"smiles": "CSCCC(NC(=O)/C(=C\\c1ccc(Cl)cc1)NC(=O)c1ccccc1)C(=O)O", "note": "(stereo not given)", "activity change, positive = activation": "inactive: -0.368%"}, {"smiles": "Cc1ccc(Nc2nc(C)cs2)cc1", "Potency": "active: 8.91 µM"}, {"smiles": "O=C(NCCc1cccs1)c1cccs1", "Potency": "inconclusive: 3.16 µM [activator, single point]"}, {"smiles": "Cn1ccc2cc3c(cc21)CCN3C(=O)Nc1cccnc1", "Potency": "inconclusive: 1.26 µM [activator, full curve]"}, {"smiles": "COc1cc(NC(=O)c2cc3nc(C)cc(C)n3n2)c(OC)cc1Cl", "Potency": "active: 11.2 µM"}, {"smiles": "Cc1ccc2[nH]c3c(c2c1)SC(C)(C)CC3=O", "activity change, positive = activation": "inactive: -0.714%"}, {"smiles": "COc1ccc(-c2csc3nc(-c4cccnc4)nc(N4CCC(C(N)=O)CC4)c23)cc1OC", "Potency": "active: 14.1 µM"}, {"smiles": "CCN(CC)C(=O)c1sc2nc(-c3ccc(OC)cc3)cn2c1C", "Potency": "inconclusive: 35.5 µM [activator, single point]"}, {"smiles": "CC(C)(C)n1ncc2c(=O)n(CC(=O)NCc3ccccc3)cnc21", "Potency": "active: 2.82 µM"}, {"smiles": "O=C(Nc1nc2ccccc2[nH]1)c1ccccc1", "Potency": "active: 3.98 µM"}, {"smiles": "Cc1csc(NC(=O)CCc2nc3ccccc3s2)n1", "Potency": "inconclusive: 0.0112 µM [activator, full curve, poor fit]"}, {"smiles": "Cc1cc(NC(=O)c2noc3c2CCc2ccccc2-3)no1", "activity change, positive = activation": "inconclusive: 59.4% [activator]"}, {"smiles": "COc1cccc(C(c2nnnn2CC2CCCO2)N2CCN(C(=O)c3ccco3)CC2)c1OC", "note": "(stereo not given)", "activity change, positive = activation": "inactive: 4.97%"}, {"smiles": "S=c1[nH]ncn1/N=C/c1ccc(N2CCOCC2)cc1", "Potency": "active: 12.6 µM"}, {"smiles": "COC(=O)c1ccccc1NC(=O)c1ccc2nccnc2c1", "activity change, positive = activation": "inactive: 0.219%"}, {"smiles": "Cc1ccc(-c2nc3c4ccccc4[nH]c(=O)n3n2)cc1", "Potency": "inconclusive: 1.58 µM [activator, full curve]"}, {"smiles": "O=C(NCCC1=CCCCC1)c1ccc(Br)o1", "activity change, positive = activation": "inactive: 28.7%"}, {"smiles": "COc1ccc2c(c1)O/C(=C\\c1sccc1C)C2=O", "Potency": "inconclusive: 35.5 µM [activator, single point]"}, {"smiles": "Cc1ccc(-c2ccc(C(=O)O)[nH]2)cc1", "activity change, positive = activation": "inactive: -6.86%"}, {"smiles": "O=C1c2ccccc2-c2nc3ccccc3nc21", "Potency": "active: 12.6 µM"}, {"smiles": "COc1ccc(-n2c(O)c(/C=N/n3cnnc3)c3ccccc3c2=O)cc1", "activity change, positive = activation": "inactive: 0.525%"}, {"smiles": "CCNC(=O)C/C(C)=N/NC(=O)C12CC3CC(CC(C3)C1)C2", "Potency": "inconclusive: 0.562 µM [activator, full curve, poor fit]"}, {"smiles": "Cc1cc(Cl)ccc1OCc1cn2cccnc2n1", "Potency": "active: 12.6 µM"}, {"smiles": "CCCCCCc1cc2cc(C(=O)NCc3ccccc3)c(=N)oc2cc1O", "Potency": "inconclusive: 14.1 µM [activator, single point]"}, {"smiles": "Cc1c(C(=O)NCc2ccccc2)oc2ccc(S(=O)(=O)N3CCC4(CC3)OCCO4)cc12", "activity change, positive = activation": "inactive: -36.5%"}, {"smiles": "COc1ccc(Nc2oc(-c3cccs3)nc2C#N)cc1", "Potency": "inconclusive: 7.94 µM [activator, partial curve]"}, {"smiles": "Cc1cccc(N=Nc2c(C)nn(-c3ccccc3)c2N)c1C", "Potency": "inconclusive: 17.8 µM [activator, partial curve, poor fit]"}]}]}
